# Experimental data: the supplement of paper PMC8728848
# This is one part of the list.
# B1: XL-35 (Xenopus laevis) (protein)
# chain: MLVHILLLLVTGGLSQSCDPVVIVASKNMVKQLDCDKFRNCKEIKDSNEEAQDGIYTLTSPDGISYQTFCDMTTNGGGWTLVASVHENNMAGKCTIGDRWSSQQGNRADYPEGDGNWANYNTFGSAGGATSDDYKNPGYYDIEAYNLGVWHVPNKTPLSVWRNSSLQRYRTTDGILFKHGGNLFSLYRIYPVKYGIGSCSKDSGPTVPVVYDLGSANLTASFYSPGFRSQFTPGYIQFRPINTEKAALALCPGMKMESCNVEHVCIGGGGYFPEADPRQCGDFAAYDFNGYGTKKFNSAGIEITEAAVLLFYL
# Legend:
# Assay in all cases: glycan array binding signal (z-score within array); higher = stronger binding
# Details in all cases: glycan notation: IUPAC condensed, linker removed
# [1] = molecular target: Gal(b1-4)GlcNAc(b1-3)Gal(b1-4)GlcNAc(b1-2)Man(a1-3)[Gal(b1-4)GlcNAc(b1-3)Gal(b1-4)GlcNAc(b1-2)Man(a1-6)]Man(b1-4)GlcNAc(b1-4)[Fuc(a1-6)]GlcNAc
# Method in brief: (§1)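 Negative Z-scores can be read as non-binding. The Z-score is calculated within each array and then averaged across arrays of one protein sequence at different concentrations or buffers and across linkers. Arrays, 3228 in all, were curated from the Consortium for Functional Glycomics database and kept only where the protein sequence was available.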
# [2] = molecular target: Gal(b1-4)GlcNAc(b1-3)Gal(b1-4)GlcNAc(b1-2)[Gal(b1-4)GlcNAc(b1-3)Gal(b1-4)GlcNAc(b1-6)]Man(a1-6)[Gal(b1-4)GlcNAc(b1-3)Gal(b1-4)GlcNAc(b1-2)Man(a1-3)]Man(b1-4)GlcNAc(b1-4)GlcNAc
# Method in brief: as §1
# [3] = molecular target: Gal(b1-4)GlcNAc(b1-3)Gal(b1-4)GlcNAc(b1-2)[Gal(b1-4)GlcNAc(b1-3)Gal(b1-4)GlcNAc(b1-6)]Man(a1-6)[Gal(b1-4)GlcNAc(b1-3)Gal(b1-4)GlcNAc(b1-2)Man(a1-3)]Man(b1-4)GlcNAc(b1-4)[Fuc(a1-6)]GlcNAc
# Method in brief: as §1
# [4] = molecular target: Gal(b1-4)GlcNAc(b1-3)Gal(b1-4)GlcNAc(b1-3)Gal(b1-4)GlcNAc
# Method in brief: as §1
# [5] = molecular target: Gal(b1-4)GlcNAc(b1-3)Gal(b1-4)GlcNAc(b1-3)Gal(b1-4)GlcNAc(b1-2)Man(a1-3)[Gal(b1-4)GlcNAc(b1-3)Gal(b1-4)GlcNAc(b1-3)Gal(b1-4)GlcNAc(b1-2)Man(a1-6)]Man(b1-4)GlcNAc(b1-4)GlcNAc
# Method in brief: as §1
# [6] = molecular target: Gal(b1-4)GlcNAc(b1-3)Gal(b1-4)GlcNAc(b1-3)Gal(b1-4)GlcNAc(b1-2)Man(a1-3)[Gal(b1-4)GlcNAc(b1-3)Gal(b1-4)GlcNAc(b1-3)Gal(b1-4)GlcNAc(b1-2)Man(a1-6)]Man(b1-4)GlcNAc(b1-4)[Fuc(a1-6)]GlcNAc
# Method in brief: as §1
# [7] = molecular target: Gal(b1-4)GlcNAc(b1-3)Gal(b1-4)GlcNAc(b1-3)Gal(b1-4)GlcNAc(b1-2)[Gal(b1-4)GlcNAc(b1-3)Gal(b1-4)GlcNAc(b1-3)Gal(b1-4)GlcNAc(b1-6)]Man(a1-6)[Gal(b1-4)GlcNAc(b1-3)Gal(b1-4)GlcNAc(b1-3)Gal(b1-4)GlcNAc(b1-2)Man(a1-3)]Man(b1-4)GlcNAc(b1-4)[Fuc(a1-6)]GlcNAc
# Method in brief: as §1
# [8] = molecular target: Gal(b1-4)GlcNAc(b1-3)Gal(b1-4)GlcNAc(b1-3)Gal(b1-4)GlcNAc(b1-3)Gal(b1-4)GlcNAc(b1-2)Man(a1-3)[Gal(b1-4)GlcNAc(b1-3)Gal(b1-4)GlcNAc(b1-3)Gal(b1-4)GlcNAc(b1-3)Gal(b1-4)GlcNAc(b1-2)Man(a1-6)]Man(b1-4)GlcNAc(b1-4)GlcNAc
# Method in brief: as §1
# [9] = molecular target: Gal(b1-4)GlcNAc(b1-3)Gal(b1-4)GlcNAc(b1-3)Gal(b1-4)GlcNAc(b1-3)Gal(b1-4)GlcNAc(b1-2)Man(a1-3)[Gal(b1-4)GlcNAc(b1-3)Gal(b1-4)GlcNAc(b1-3)Gal(b1-4)GlcNAc(b1-3)Gal(b1-4)GlcNAc(b1-2)Man(a1-6)]Man(b1-4)GlcNAc(b1-4)[Fuc(a1-6)]GlcNAc
# Method in brief: as §1
# [10] = molecular target: Gal(b1-4)GlcNAc(b1-3)Gal(b1-4)GlcNAc(b1-3)Gal(b1-4)GlcNAc(b1-3)Gal(b1-4)GlcNAc(b1-2)[Gal(b1-4)GlcNAc(b1-3)Gal(b1-4)GlcNAc(b1-3)Gal(b1-4)GlcNAc(b1-3)Gal(b1-4)GlcNAc(b1-6)]Man(a1-6)[Gal(b1-4)GlcNAc(b1-3)Gal(b1-4)GlcNAc(b1-3)Gal(b1-4)GlcNAc(b1-3)Gal(b1-4)GlcNAc(b1-2)Man(a1-3)]Man(b1-4)GlcNAc(b1-4)[Fuc(a1-6)]GlcNAc
# Method in brief: as §1
# [11] = molecular target: Gal(b1-4)GlcNAc(b1-3)Gal(b1-4)GlcNAc(b1-3)Gal(b1-4)GlcNAc(b1-3)Gal(b1-4)GlcNAc(b1-3)Gal(b1-4)GlcNAc(b1-2)Man(a1-3)[Gal(b1-4)GlcNAc(b1-3)Gal(b1-4)GlcNAc(b1-3)Gal(b1-4)GlcNAc(b1-3)Gal(b1-4)GlcNAc(b1-3)Gal(b1-4)GlcNAc(b1-2)Man(a1-6)]Man(b1-4)GlcNAc(b1-4)GlcNAc
# Method in brief: as §1
# [12] = molecular target: Gal(b1-4)GlcNAc(b1-3)Gal(b1-4)GlcNAc(b1-3)Gal(b1-4)GlcNAc(b1-3)Gal(b1-4)GlcNAc(b1-3)Gal(b1-4)GlcNAc(b1-2)Man(a1-3)[Gal(b1-4)GlcNAc(b1-3)Gal(b1-4)GlcNAc(b1-3)Gal(b1-4)GlcNAc(b1-3)Gal(b1-4)GlcNAc(b1-3)Gal(b1-4)GlcNAc(b1-2)Man(a1-6)]Man(b1-4)GlcNAc(b1-4)[Fuc(a1-6)]GlcNAc
# Method in brief: as §1
# [13] = molecular target: Gal(b1-4)GlcNAc(b1-3)Gal(b1-4)GlcNAc(b1-3)Gal(b1-4)GlcNAc(b1-3)Gal(b1-4)GlcNAc(b1-3)Gal(b1-4)GlcNAc(b1-2)[Gal(b1-4)GlcNAc(b1-3)Gal(b1-4)GlcNAc(b1-3)Gal(b1-4)GlcNAc(b1-3)Gal(b1-4)GlcNAc(b1-3)Gal(b1-4)GlcNAc(b1-6)]Man(a1-6)[Gal(b1-4)GlcNAc(b1-3)Gal(b1-4)GlcNAc(b1-3)Gal(b1-4)GlcNAc(b1-3)Gal(b1-4)GlcNAc(b1-3)Gal(b1-4)GlcNAc(b1-2)Man(a1-3)]Man(b1-4)GlcNAc(b1-4)[Fuc(a1-6)]GlcNAc
# Method in brief: as §1
# [14] = molecular target: Gal(b1-4)GlcNAc(b1-3)Gal(b1-4)GlcNAc(b1-3)Gal(b1-4)GlcNAc(b1-3)Gal(b1-4)GlcNAc(b1-3)Gal(b1-4)GlcNAc(b1-3)Gal(b1-4)GlcNAc(b1-2)Man(a1-3)[Gal(b1-4)GlcNAc(b1-3)Gal(b1-4)GlcNAc(b1-3)Gal(b1-4)GlcNAc(b1-3)Gal(b1-4)GlcNAc(b1-3)Gal(b1-4)GlcNAc(b1-3)Gal(b1-4)GlcNAc(b1-2)Man(a1-6)]Man(b1-4)GlcNAc(b1-4)GlcNAc
# Method in brief: as §1
# [15] = molecular target: Gal(b1-4)GlcNAc(b1-3)Gal(b1-4)GlcNAc(b1-3)GalNAc
# Method in brief: as §1
# [16] = molecular target: Gal(b1-4)GlcNAc(b1-3)Gal(b1-4)GlcNAc(b1-3)[Gal(b1-4)GlcNAc(b1-3)Gal(b1-4)GlcNAc(b1-6)]GalNAc
# Method in brief: as §1
# [17] = molecular target: Gal(b1-4)GlcNAc(b1-3)Gal(b1-4)GlcNAc(b1-6)[Gal(b1-3)]GalNAc
# Method in brief: as §1
# [18] = molecular target: Gal(b1-4)GlcNAc(b1-3)Gal(b1-4)[Fuc(a1-3)]GlcNAc(b1-3)Gal(b1-4)[Fuc(a1-3)]GlcNAc
# Method in brief: as §1
# [19] = molecular target: Gal(b1-4)GlcNAc(b1-3)GalNAc
# Method in brief: as §1
# [20] = molecular target: Gal(b1-4)GlcNAc(b1-3)[Fuc(a1-3)GlcNAc(b1-6)]Gal(b1-4)Glc
# Method in brief: as §1
# [21] = molecular target: Gal(b1-4)GlcNAc(b1-3)[Gal(b1-4)GlcNAc(b1-6)]Gal(b1-4)GlcNAc
# Method in brief: as §1
# [22] = molecular target: Gal(b1-4)GlcNAc(b1-3)[Gal(b1-4)GlcNAc(b1-6)]GalNAc
# Method in brief: as §1
# [23] = molecular target: Gal(b1-4)GlcNAc(b1-3)[GlcNAc(b1-6)]Gal(b1-4)GlcNAc
# Method in brief: as §1
# [24] = molecular target: Gal(b1-4)GlcNAc(b1-6)Gal(b1-4)GlcNAc
# Method in brief: as §1
# [25] = molecular target: Gal(b1-4)GlcNAc(b1-6)GalNAc
# Method in brief: as §1
# [26] = molecular target: Gal(b1-4)GlcNAc(b1-6)[Gal(b1-3)]GalNAc
# Method in brief: as §1
# [27] = molecular target: Gal(b1-4)GlcNAc(b1-6)[Gal(b1-3)]GlcNAc
# Method in brief: as §1
# [28] = molecular target: Gal(b1-4)GlcNAc(b1-6)[Gal(b1-4)GlcNAc(b1-3)]GalNAc
# Method in brief: as §1
# Gal(b1-4)GlcNAc6P = molecular target: Gal(b1-4)GlcNAc6P
# Method in brief: as §1
# Gal(b1-6)Gal = molecular target: Gal(b1-6)Gal
# Method in brief: as §1
# Gal3S(b1-3)GalNAc = molecular target: Gal3S(b1-3)GalNAc
# Method in brief: as §1
# Gal3S(b1-3)GlcNAc = molecular target: Gal3S(b1-3)GlcNAc
# Method in brief: as §1
# [29] = molecular target: Gal3S(b1-3)[Fuc(a1-4)]GlcNAc
# Method in brief: as §1
# Gal3S(b1-4)Glc = molecular target: Gal3S(b1-4)Glc
# Method in brief: as §1
# Gal3S(b1-4)Glc6S = molecular target: Gal3S(b1-4)Glc6S
# Method in brief: as §1
# Gal3S(b1-4)GlcNAc = molecular target: Gal3S(b1-4)GlcNAc
# Method in brief: as §1
# Gal3S(b1-4)GlcNAc6S = molecular target: Gal3S(b1-4)GlcNAc6S
# Method in brief: as §1
# [30] = molecular target: Gal3S(b1-4)[Fuc(a1-3)]Glc6S
# Method in brief: as §1
binder,measurement,setting,value
B1,glycan array binding signal (z-score),[1],0.239
same,glycan array binding signal (z-score),[2],0.164
same,glycan array binding signal (z-score),[3],0.295
same,glycan array binding signal (z-score),[4],-0.269
same,glycan array binding signal (z-score),[5],0.052
same,glycan array binding signal (z-score),[6],0.113
same,glycan array binding signal (z-score),[7],-0.056
same,glycan array binding signal (z-score),[8],0.163
same,glycan array binding signal (z-score),[9],0.331
same,glycan array binding signal (z-score),[10],-0.13
same,glycan array binding signal (z-score),[11],-0.412
same,glycan array binding signal (z-score),[12],0.144
same,glycan array binding signal (z-score),[13],0.478
same,glycan array binding signal (z-score),[14],0.297
same,glycan array binding signal (z-score),[15],-0.165
same,glycan array binding signal (z-score),[16],-0.094
same,glycan array binding signal (z-score),[17],-0.02
same,glycan array binding signal (z-score),[18],-0.254
same,glycan array binding signal (z-score),[19],-0.345
same,glycan array binding signal (z-score),[20],-0.26
same,glycan array binding signal (z-score),[21],-0.081
same,glycan array binding signal (z-score),[22],-0.099
same,glycan array binding signal (z-score),[23],-0.228
same,glycan array binding signal (z-score),[24],-0.354
same,glycan array binding signal (z-score),[25],-0.097
same,glycan array binding signal (z-score),[26],-0.038
same,glycan array binding signal (z-score),[27],-0.106
same,glycan array binding signal (z-score),[28],-0.332
same,glycan array binding signal (z-score),Gal(b1-4)GlcNAc6P,-0.273
same,glycan array binding signal (z-score),Gal(b1-6)Gal,-0.238
same,glycan array binding signal (z-score),Gal3S(b1-3)GalNAc,0.278
same,glycan array binding signal (z-score),Gal3S(b1-3)GlcNAc,0.168
same,glycan array binding signal (z-score),[29],-0.223
same,glycan array binding signal (z-score),Gal3S(b1-4)Glc,-0.135
same,glycan array binding signal (z-score),Gal3S(b1-4)Glc6S,-0.076
same,glycan array binding signal (z-score),Gal3S(b1-4)GlcNAc,0.028
same,glycan array binding signal (z-score),Gal3S(b1-4)GlcNAc6S,0.036
same,glycan array binding signal (z-score),[30],0.818
